This is one part of the list.

The subject of this experiment is T1, C. trachomatis L2/434/Bu expressing GFP (CTL2-GFP).
T1 construct: L2/434/Bu GFP intracellular growth in HeLa cells
On the set-up: species or system HeLa; C. trachomatis total inclusion area by high-content imaging, normalised to DMSO. To be noted: total inclusion area; 28.5 h, 10 µM; inhibitor. The method in brief: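 Bulk GFP and resorufin signals were read first. Wells were then fixed, stained with Hoechst and imaged to detect GFP inclusions and host nuclei. MICs followed the previously described calculation.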
With `N#Cc1ccc(COc2cccc(C(F)(F)F)c2)cc1` [CBK002811], the “% of control remaining” value worked out at 56.665.
With `Cc1nn(CC(=O)NC2CCC2)c(=O)c2cc3sccc3n12` [CBK284110], the “% of control remaining” value came to 82.6465.
To `CC(C)CNc1nc2c(ncn2[C@H]2C[C@@H](O)[C@@H](CO)O2)c(=O)[nH]1` [CBK201198] belongs 121.696; to `COc1ccc(C(=O)NCc2ccccc2)c(OC)n1` [CBK200190], 111.865.
Then `CCOC(=O)Cn1ccc2ccnc(-c3cccc(OC)c3)c21` [CBK284707], with 70.2517; and `Cc1ocnc1C(=O)Nc1nc2c(cc1C#N)CCC2` [CBK306365], with 71.6023.
To `NC1CCN(c2ncccn2)CC1` [CBK174054] belongs 100.638; to `O=C(CN1CCCCC1CN1CCOCC1)NCc1ccccn1` (centres unmarked) [CBK304375], 77.4619; to `O=C(NC1CC1)[C@@H]1C=CCN1C(=O)Nc1ccccc1C(F)(F)F` [CBK284276], 74.2303.
On to `Nc1ncc(-c2cccc(O)c2)nc1N1CCOCC1` [CBK063376], for which the “% of control remaining” value is listed as 84.8496.
On to `c1csc(N2CCN(c3nccn4cnnc34)CC2)n1` [CBK305185], for which the “% of control remaining” value is on record as 93.2117.
To `NC(=O)CN1CCCC2(CCCCc3ccccc3OCC(=O)NC2)C1` (centres unmarked) [CBK292058] belongs 84.7897; to `c1cncc(-c2nnc(SCc3nc4ccccc4[nH]3)o2)c1` [CBK264543], 105.492.
As to `Cc1cnc2[nH]c(C(F)(F)F)c(CN3CCSCC3)c2c1` [CBK284767], the “% of control remaining” value worked out at 101.821.
For `CN(C)CCN1CCN(c2nc(-c3cccnc3)cnc2N)CC1` [CBK063503], the “% of control remaining” value was 135.966.
For the molecule `O=[N+]([O-])c1ccc(/C=N/Nc2nnc3c(n2)[nH]c2ccccc23)cc1` [CBK261486], the “% of control remaining” value is reported as 105.106.
As to `O=C(c1ccc(Br)o1)N1CCc2ccc(S(=O)(=O)N3CCOCC3)cc21` [CBK028953], the “% of control remaining” value is 71.2244.
Then `O=c1cc(-c2cccc([N+](=O)[O-])c2)c2ccc(OCc3cc4c(cc3Cl)OCO4)cc2o1` [CBK265652], with 75.9573; and `O=C(Nc1ccnn1Cc1cc(Br)cs1)c1ccc2ncsc2c1` [CBK296713], with 108.013; and `Cc1cccnc1CN1CCC2(CCc3ccccc3C(=O)N2)C1` (centres unmarked) [CBK284611], with 87.5275.
On to `c1ccc2c(Sc3cnccn3)cccc2c1` [CBK085841], for which the “% of control remaining” value came to 105.229.
`CCCOCCN1CCN(C(=O)c2nn3cc(C)cnc3c2Cl)CC1` [CBK306690]: the “% of control remaining” value turned out to be 50.1326.
To `CCCCCNC(=O)N1CCN(CCCC(c2ccc(F)cc2)c2ccc(F)cc2)CC1` [CBK024917C] belongs 89.164; to `CC(C#CCN(C)C)N1C(=O)CCC1C` (centres unmarked) [CBK008291G], 93.0529.
Then `CCOC(=O)c1sc(NS(=O)(=O)Cc2ccccc2)nc1C` [CBK047448], with 71.4578; and `O=C(O)CCN1C(=O)c2ccc(NC(=O)c3ccccc3Cl)cc2C1=O` [CBK268413], with 75.3631.
Take `OCCNc1cncc(-c2ccccc2)n1` [CBK065857]: the “% of control remaining” value was found to be 100.534.
Regarding `O=S(=O)(NCc1ccccc1)c1cc(S(=O)(=O)c2ccc(Cl)cc2)ccc1Cl` [CBK263207], the “% of control remaining” value stood at 63.8598.
For `Cc1cccc(CNc2nccnc2-c2cccc(N)c2)c1` [CBK038080], the “% of control remaining” value is reported as 92.0111.
Then `Cc1nc(-c2ccccc2F)sc1C(=O)Nc1ccccn1` [CBK287979], with 107.955.
For `Cc1ccc(CN2CC[C@H]3[C@@H](C2)[C@H](c2ccsc2)CN3C(=O)c2ccc(F)cc2)cc1` [CBK285637], the “% of control remaining” value turned out to be 85.7064.
To `CC(C)(C)OC(=O)N1CCCC(C(=O)Nc2ccccn2)C1` (centres unmarked) [CBK304524] belongs 64.6069; to `CCc1nc(NC(=O)c2ccnc(Cl)c2)sc1C` [CBK298287], 87.5927.
Regarding `O=C(CN1C(=O)C2C3c4ccccc4C(c4ccccc43)C2C1=O)OCC(=O)c1ccc(F)cc1` (centres unmarked) [CBK264861], the “% of control remaining” value amounted to 113.509.
Consider `CC1CCCCN1S(=O)(=O)c1ccc(NCCC(=O)c2ccc(Cl)cc2)cc1` (centres unmarked) [CBK268529], for which the “% of control remaining” value came to 102.07.
To `Cc1nc(C2(O)CCCN(C3CCCC3)CC2)sc1COc1ccc(F)c(F)c1` (centres unmarked) [CBK286259] belongs 64.4466.
With `C(=C\C1Nc2ccccc2-c2nnc(SCc3ccccc3)nc2O1)/c1ccccc1` (centres unmarked) [CBK264447], the “% of control remaining” value stood at 91.
For the molecule `Brc1ccccc1-c1nnc2n1CCCCC2` [CBK200092], the “% of control remaining” value is given as 93.0559.
Regarding `Brc1cn2ccnc2c(NCCc2ccccn2)n1` [CBK066244], the “% of control remaining” value was found to be 60.3897.
Turning to `COc1ccc(-c2cnc3[nH]c(=O)n(Cc4cccs4)c3n2)c(OC)c1OC` [CBK064716], the “% of control remaining” value was 72.2542.
To `CS(=O)(=O)N1CCN(Cc2cc(Br)ccc2O)CC1` [CBK263620G] belongs 94.9068; to `COc1ccc2c(c1)c(=O)oc1c(CN3CCCC3)c(O)ccc12` [CBK266814], 88.5884.
Regarding `Nc1cc2ccccc2c(-c2ccc(OC(F)(F)F)cc2)n1` [CBK085725], the “% of control remaining” value is reported as 58.9277.
Regarding `Cc1cccc(NC(=O)c2n[nH]c3ccccc23)c1` [CBK288231], the “% of control remaining” value amounted to 81.6122.
Then `O=c1[nH]c2ncc(-c3cccc(-c4ccccc4)c3)nc2n1CCCN1CCOCC1` [CBK064311], with 84.7624; and `O=C(O)c1cc(S(=O)(=O)NCc2ccco2)ccc1Br` [CBK306193], with 43.0951.
In the case of `Cc1cnc2[nH]c(C(C)C)c(CN3CCCOCC3)c2c1` [CBK284742], the “% of control remaining” value was found to be 106.305.
With `O=C(CN(c1ccc(F)cc1)S(=O)(=O)c1ccccc1)Nc1ccc2c(c1)OCCO2` [CBK265215], the “% of control remaining” value is recorded as 114.689.
To `O=C(Nc1nccs1)c1ncn[nH]1` [CBK028821] belongs 95.9209; to `COc1cc(C(=O)N/C(=C\c2ccc(O)cc2)C(=O)O)cc(OC)c1OC` [CBK262607], 91.5889.
For the molecule `O=C(O)C1CCN(S(=O)(=O)c2ccc(F)cc2)CC1` [CBK100196], the “% of control remaining” value stood at 64.0007.
To `CC1=NN(c2nc(-c3ccc(Br)cc3)cs2)C(=O)C1/N=N/c1cccc(CO)c1` (centres unmarked) [CBK262429] belongs 108.1; to `O=[N+]([O-])c1cc(CN2CCCCC2)c2cccnc2c1O` [CBK265121], 109.17.

These data come from paper PMC12040169 (PLOS Biology, 2025).
